# According to the supplement of paper PMC8728848:
# This is one part of the list.
# B1: Pbx1 (Cryptococcus neoformans) (protein)
# chain: ATTKCLVSGDQDSINNALALGGEGTTVTLCPGSVHRLNSSIIFTAPSQTLTTLGNPKDRNRAMLVVDGEDLACAIRADCKQCSHAMIRSLVIDGNRPQLLRIPKGDALIEVGNAESQTVRDCKLYEPRGWSALHFREGDERQCRFGHIVDNEIGPCGEEWDDEYDSMDETKPLWGNPRADGISLACKDSIVERNVVYDATDGAIVLFGSAGSTVKNNHVYARTRVILGGINLVDYEPWDGDYTNVKVHHNHLYALGRYFKVGIVIGPASWSDDTESVVHSASVTDNEFSGGYWGYGIVVASAKNFEVLRNKVIWDGEQGVARFSGVPGSRCPKAPENGKPTAFLINRGSAKGIFQDDFVNGEVQHIICLNPDQDPPYKPWRFRDSPEAIAAKQAENPTANSAFDSRIAEALVSYQMSLLNSMDAMTQKVEHLTNPIVDDALPFVHEHERAEADKKARQEASRKEKESGNKDVDMLNVKVEELEKSGRRLKKALDGLKSDFEGLSGRLKKSADENKPIIETIFVTSQNLLLGATSQQN
# Columns and labels:
# Experiment in all cases: glycan array binding signal (z-score within array); higher = stronger binding
# Conditions in all cases: glycan notation: IUPAC condensed, linker removed
# [1] = molecular target: Neu5Ac(a2-3)GalNAc(b1-4)GlcNAc
# How it was run: (§1)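 Columns mapping to the same glycan were averaged after glycan names were converted to IUPAC-condensed notation. The data come from 3228 arrays in the Consortium for Functional Glycomics database, limited to those with an available protein sequence. Binding is reported as a within-array Z-score averaged across arrays of one protein sequence and across linkers.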
# [2] = molecular target: Neu5Ac(a2-3)[GalNAc(b1-4)]Gal(b1-4)Glc
# How it was run: as §1
# [3] = molecular target: Neu5Ac(a2-3)[GalNAc(b1-4)]Gal(b1-4)GlcNAc
# How it was run: as §1
# [4] = molecular target: Neu5Ac(a2-3)[GalNAc(b1-4)]Gal(b1-4)GlcNAc(b1-3)GalNAc
# How it was run: as §1
# [5] = molecular target: Neu5Ac(a2-3)[Neu5Ac(a2-6)]GalNAc
# How it was run: as §1
# Neu5Ac(a2-6)Gal = molecular target: Neu5Ac(a2-6)Gal
# How it was run: as §1
# [6] = molecular target: Neu5Ac(a2-6)Gal(b1-3)GlcNAc(b1-3)[Gal(b1-4)GlcNAc(b1-6)]Gal(b1-4)Glc
# How it was run: as §1
# Neu5Ac(a2-6)Gal(b1-4)Glc = molecular target: Neu5Ac(a2-6)Gal(b1-4)Glc
# How it was run: as §1
# [7] = molecular target: Neu5Ac(a2-6)Gal(b1-4)GlcNAc
# How it was run: as §1
# [8] = molecular target: Neu5Ac(a2-6)Gal(b1-4)GlcNAc(b1-2)Man
# How it was run: as §1
# [9] = molecular target: Neu5Ac(a2-6)Gal(b1-4)GlcNAc(b1-2)Man(a1-3)Man(b1-4)GlcNAc(b1-4)GlcNAc
# How it was run: as §1
# [10] = molecular target: Neu5Ac(a2-6)Gal(b1-4)GlcNAc(b1-2)Man(a1-3)[Gal(b1-4)GlcNAc(b1-2)Man(a1-6)]Man(b1-4)GlcNAc(b1-4)GlcNAc
# How it was run: as §1
# [11] = molecular target: Neu5Ac(a2-6)Gal(b1-4)GlcNAc(b1-2)Man(a1-3)[GlcNAc(b1-2)Man(a1-6)]Man(b1-4)GlcNAc(b1-4)GlcNAc
# How it was run: as §1
# [12] = molecular target: Neu5Ac(a2-6)Gal(b1-4)GlcNAc(b1-2)Man(a1-3)[GlcNAc(b1-4)][Neu5Ac(a2-6)Gal(b1-4)GlcNAc(b1-2)Man(a1-6)]Man(b1-4)GlcNAc(b1-4)GlcNAc
# How it was run: as §1
# [13] = molecular target: Neu5Ac(a2-6)Gal(b1-4)GlcNAc(b1-2)Man(a1-3)[Man(a1-6)]Man(b1-4)GlcNAc(b1-4)GlcNAc
# How it was run: as §1
# [14] = molecular target: Neu5Ac(a2-6)Gal(b1-4)GlcNAc(b1-2)Man(a1-3)[Neu5Ac(a2-3)Gal(b1-4)GlcNAc(b1-2)Man(a1-6)]Man(b1-4)GlcNAc(b1-4)GlcNAc
# How it was run: as §1
# [15] = molecular target: Neu5Ac(a2-6)Gal(b1-4)GlcNAc(b1-2)Man(a1-3)[Neu5Ac(a2-6)Gal(b1-4)GlcNAc(b1-2)Man(a1-6)]Man(b1-4)GlcNAc(b1-4)GlcNAc
# How it was run: as §1
# [16] = molecular target: Neu5Ac(a2-6)Gal(b1-4)GlcNAc(b1-2)Man(a1-3)[Neu5Ac(a2-6)Gal(b1-4)GlcNAc(b1-2)Man(a1-6)]Man(b1-4)GlcNAc(b1-4)[Fuc(a1-6)]GlcNAc
# How it was run: as §1
# [17] = molecular target: Neu5Ac(a2-6)Gal(b1-4)GlcNAc(b1-2)Man(a1-6)Man(b1-4)GlcNAc(b1-4)GlcNAc
# How it was run: as §1
# [18] = molecular target: Neu5Ac(a2-6)Gal(b1-4)GlcNAc(b1-2)Man(a1-6)[Gal(b1-4)GlcNAc(b1-2)Man(a1-3)]Man(b1-4)GlcNAc(b1-4)GlcNAc
# How it was run: as §1
# [19] = molecular target: Neu5Ac(a2-6)Gal(b1-4)GlcNAc(b1-2)Man(a1-6)[GlcNAc(b1-2)Man(a1-3)]Man(b1-4)GlcNAc(b1-4)GlcNAc
# How it was run: as §1
# [20] = molecular target: Neu5Ac(a2-6)Gal(b1-4)GlcNAc(b1-2)Man(a1-6)[Man(a1-3)]Man(b1-4)GlcNAc(b1-4)GlcNAc
# How it was run: as §1
# [21] = molecular target: Neu5Ac(a2-6)Gal(b1-4)GlcNAc(b1-2)[Neu5Ac(a2-6)Gal(b1-4)GlcNAc(b1-4)]Man(a1-3)[GlcNAc(b1-4)][Neu5Ac(a2-6)Gal(b1-4)GlcNAc(b1-2)[Neu5Ac(a2-6)Gal(b1-4)GlcNAc(b1-6)]Man(a1-6)]Man(b1-4)GlcNAc(b1-4)GlcNAc
# How it was run: as §1
# [22] = molecular target: Neu5Ac(a2-6)Gal(b1-4)GlcNAc(b1-2)[Neu5Ac(a2-6)Gal(b1-4)GlcNAc(b1-4)]Man(a1-3)[GlcNAc(b1-4)][Neu5Ac(a2-6)Gal(b1-4)GlcNAc(b1-4)Man(a1-6)]Man(b1-4)GlcNAc(b1-4)GlcNAc
# How it was run: as §1
# [23] = molecular target: Neu5Ac(a2-6)Gal(b1-4)GlcNAc(b1-2)[Neu5Ac(a2-6)Gal(b1-4)GlcNAc(b1-6)]Man(a1-6)[Neu5Ac(a2-6)Gal(b1-4)GlcNAc(b1-2)Man(a1-3)][GlcNAc(b1-4)]Man(b1-4)GlcNAc(b1-4)GlcNAc
# How it was run: as §1
# [24] = molecular target: Neu5Ac(a2-6)Gal(b1-4)GlcNAc(b1-3)Gal(b1-3)GlcNAc
# How it was run: as §1
# [25] = molecular target: Neu5Ac(a2-6)Gal(b1-4)GlcNAc(b1-3)Gal(b1-4)GlcNAc
# How it was run: as §1
# [26] = molecular target: Neu5Ac(a2-6)Gal(b1-4)GlcNAc(b1-3)Gal(b1-4)GlcNAc(b1-2)Man(a1-3)[Neu5Ac(a2-6)Gal(b1-4)GlcNAc(b1-3)Gal(b1-4)GlcNAc(b1-2)Man(a1-6)]GalNAc
# How it was run: as §1
# [27] = molecular target: Neu5Ac(a2-6)Gal(b1-4)GlcNAc(b1-3)Gal(b1-4)GlcNAc(b1-3)Gal(b1-4)GlcNAc
# How it was run: as §1
# [28] = molecular target: Neu5Ac(a2-6)Gal(b1-4)GlcNAc(b1-3)Gal(b1-4)GlcNAc(b1-3)Gal(b1-4)GlcNAc(b1-2)Man(a1-3)[Neu5Ac(a2-6)Gal(b1-4)GlcNAc(b1-3)Gal(b1-4)GlcNAc(b1-3)Gal(b1-4)GlcNAc(b1-2)Man(a1-6)]GalNAc
# How it was run: as §1
# [29] = molecular target: Neu5Ac(a2-6)Gal(b1-4)GlcNAc(b1-3)Gal(b1-4)GlcNAc(b1-3)GalNAc
# How it was run: as §1
# [30] = molecular target: Neu5Ac(a2-6)Gal(b1-4)GlcNAc(b1-3)Gal(b1-4)GlcNAc(b1-3)[Neu5Ac(a2-6)Gal(b1-4)GlcNAc(b1-3)Gal(b1-4)GlcNAc(b1-6)]GalNAc
# How it was run: as §1
# [31] = molecular target: Neu5Ac(a2-6)Gal(b1-4)GlcNAc(b1-3)Gal(b1-4)GlcNAc(b1-6)[Gal(b1-3)]GalNAc
# How it was run: as §1
# [32] = molecular target: Neu5Ac(a2-6)Gal(b1-4)GlcNAc(b1-3)Gal(b1-4)[Fuc(a1-3)]GlcNAc(b1-3)Gal(b1-4)[Fuc(a1-3)]GlcNAc
# How it was run: as §1
# [33] = molecular target: Neu5Ac(a2-6)Gal(b1-4)GlcNAc(b1-3)GalNAc
# How it was run: as §1
# [34] = molecular target: Neu5Ac(a2-6)Gal(b1-4)GlcNAc(b1-3)[Neu5Ac(a2-6)Gal(b1-4)GlcNAc(b1-6)]GalNAc
# How it was run: as §1
# [35] = molecular target: Neu5Ac(a2-6)Gal(b1-4)GlcNAc(b1-6)GalNAc
# How it was run: as §1
binder,measurement,setting,value
B1,glycan array binding signal (z-score),[1],-1.27
same,glycan array binding signal (z-score),[2],-0.399
same,glycan array binding signal (z-score),[3],-0.475
same,glycan array binding signal (z-score),[4],0.696
same,glycan array binding signal (z-score),[5],-0.513
same,glycan array binding signal (z-score),Neu5Ac(a2-6)Gal,-0.433
same,glycan array binding signal (z-score),[6],0.509
same,glycan array binding signal (z-score),Neu5Ac(a2-6)Gal(b1-4)Glc,0.183
same,glycan array binding signal (z-score),[7],-0.519
same,glycan array binding signal (z-score),[8],-0.089
same,glycan array binding signal (z-score),[9],-0.15
same,glycan array binding signal (z-score),[10],-0.304
same,glycan array binding signal (z-score),[11],-0.681
same,glycan array binding signal (z-score),[12],-0.499
same,glycan array binding signal (z-score),[13],0.004
same,glycan array binding signal (z-score),[14],-0.208
same,glycan array binding signal (z-score),[15],-0.135
same,glycan array binding signal (z-score),[16],0.568
same,glycan array binding signal (z-score),[17],0.033
same,glycan array binding signal (z-score),[18],0.095
same,glycan array binding signal (z-score),[19],-0.525
same,glycan array binding signal (z-score),[20],0.813
same,glycan array binding signal (z-score),[21],2.36
same,glycan array binding signal (z-score),[22],0.02
same,glycan array binding signal (z-score),[23],-0.36
same,glycan array binding signal (z-score),[24],-0.123
same,glycan array binding signal (z-score),[25],-0.807
same,glycan array binding signal (z-score),[26],0.513
same,glycan array binding signal (z-score),[27],0.314
same,glycan array binding signal (z-score),[28],0.93
same,glycan array binding signal (z-score),[29],-0.499
same,glycan array binding signal (z-score),[30],-0.479
same,glycan array binding signal (z-score),[31],1.17
same,glycan array binding signal (z-score),[32],0.186
same,glycan array binding signal (z-score),[33],-0.569
same,glycan array binding signal (z-score),[34],0.871
same,glycan array binding signal (z-score),[35],0.858
